Assays:
CEPO-L2A2 target cells = assay: TDCC co-culture assay, CEPO-L2A2 (low EpCAM); type: cell-based, human; settings: up to 10 nM, 67 hours
Text: (§1) FIG. 48 depicts co-culture TDCC data for an exemplary T-LITE pair and a conventional TCE on isogenic cell lines with different surface expression of human EpCAM. A panel of isogenic cell lines was created using the Calu-6 human lung cancer cell line as a starting point. Based on literature values for surface expression of EpCAM, Calu-6 expresses 40,926 copies/cell, whereas HCT-116 expresses approximately 100-fold higher levels at 4,753,190 copies/cell (Casaletto et al., PNAS 2019; doi: 10.1073/pnas.1819085116). Human EpCAM was expressed on the Calu-6 background using lentiviral vectors with different strength promoters. […] Relative surface expression of human EpCAM on each cell line was measured by flow cytometry, as well as parental Calu-6 cells and HCT-116 as controls. The conventional TCE control Ab1070 and a T-LITE pair (Ab1093+Ab1060) were assessed in a co-culture assay measuring TDCC of either CEPO-HB2 or CEPO-L2A2 target cells, representing high and low expression of EpCAM, respectively. The assay was performed with 10 nM antibodies (or titrated as indicated), 100 nM indinavir or DMSO vehicle, human T-cells and a variety target cells (as indicated) for 67 hours. Flow cytometry was performed using a PE-conjugated fluorescent anti-human EpCAM antibody (clone 9C4). […]

CEPO-HB2 target cells = assay: TDCC co-culture assay, CEPO-HB2 (high EpCAM); type: cell-based, human
Text: as §1

B1: Ab1070: conventional TCE containing the M37-H6L2 variant of the M37 clone (antibody)
heavy 1: EVQLVESGGGLVQPGGSLRLSCAASGFTFNTYAMNWVRQAPGKGLEWVARIRSKYNNYATYYADSVKGRFTISRDDSKSILYLQMNSLRAEDTAVYYCVRHGNFGNSYVSWFAYWGQGTLVTVSSGGGGSGGGGSGGGGSDIQVTQSPSSLSASVGDRVTITCRSSTGAVTTSNYANWVQQKPGKAFKGLIGGTNKLAPGVPSRFSGSLSGDDATLTISSLQPEDFATYYCALWYSNLWVFGQGTKLEIKGGGGS[human IgG1 Fc with changes left out]
heavy 2: EVQLVESGGGLVQPGGSLRLSCAASGFTFSNYWMNWVRQAPGKGLEWVAQIRVKSENFATHYADSVKGRFTISRDDSKSTVYLQMNSLRAEDTAVYYCTLYDGFSWGQGTLVTVSSASTKGPSVFPLAPSSKSTSGGTAALGCLVKDYFPEPVTVSWNSGALTSGVHTFPAVLQSSGLYSLSSVVTVPSSSLGTQTYICNVNHKPSNTKVDKKV[human IgG1 Fc with changes left out]
light: DIQMTQSPSSLSASVGDRVTITCSASSSVSSGNFHWYQQKPGKAPKLLIYRTSNLASGVPSRFSGSGSGTDYTLTISSLQPEDFATYYCQQWSGYPYTFGQGTKVEIKRTVAAPSVFIFPPSDEQLKSGTASVVCLLNNFYPREAKVQWKVDNALQSGNSQESVTEQDSKDSTYSLSSTLTLSKADYEKHKVYACEVTHQGLSSPVTKSFNRGEC
modifications: REGION 1..482: note = Ab1070 Knob HC; REGION 1..446: note = Ab1070 Hole HC; REGION 1..215: note = Ab1070 Hole LC
notes: conventional TCE containing the M37-H6L2 variant of the M37 clone
In the case of B1, the “killing of CEPO-L2A2 line” value (CEPO-L2A2 target cells) is reported as “potently killed”, the “killing of CEPO-HB2 line” value (CEPO-HB2 target cells; 67 hours) is reported as “potently killed” and the “window between the EC50 for the high- and low-expressing lines” value (CEPO-HB2 target cells; CEPO-HB2 vs CEPO-L2A2) is reported as 47 fold.
